# Reference: the supplement of paper PMC10498489
# Screen size: about 2,300 compounds; about 330 (14%) showed activity.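 The calls were made as follows: active = median modified Z-score above 1.96; inactive = 1.96 or below.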 This is a selection; strong and weak results do not stand in their true shares.
# Tested on: HepG2 Srxn1-GFP reporter cells (+30 nM CDDO-Me)
# Experiment: Srxn1-GFP intensity median modified Z-score relative to plate median; higher = stronger NRF2 / oxidative stress reporter activation, active = hit call of the paper
# Conditions: 10 µM; exposure time: 24h
# Outline: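 Each value is the replicate median of a per-plate modified Z-score for GFP intensity in HepG2 Srxn1-GFP BAC reporter cells. The cells (20,000 per well, 96-well plates, three replicate plates) received compound at 10 μM together with an NRF2 activator at 30 nM for 24 h, in ≤0.1% DMSO. Cytoplasmic GFP was quantified per cell from confocal images of formaldehyde-fixed, Hoechst-stained cells, leaving out images with fewer than 100 cells, and scaling used 1.4826 × median absolute deviation.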
row,Compound,Srxn1-GFP intensity median modified Z-score
1,Cc1nccn1CC1CCc2c(c3ccccc3n2C)C1=O (centres undefined) [euspeclibcmpd508],inactive: -0.204
2,CC(C)Cn1c(=O)n(C)c(=O)c2nc[nH]c21 [euspeclibcmpd1808],active: 11.6
3,OCC(S)CS (centres undefined) [euspeclibcmpd98],inactive: 0.392
4,O=C(c1cccnc1)N1CCOCC1 [euspeclibcmpd1288],inactive: -0.123
5,COc1ccc2cc3[n+](cc2c1OC)CCc1cc2c(cc1-3)OCO2 [euspeclibcmpd1051],active: 6.03
6,Cc1cc(O)cc(O)c1C(=O)O [euspeclibcmpd1613],inactive: -0.155
7,CCCCCCCCCCCCCCCC(=O)OCC(O)c1oc(O)c(O)c1O (centres undefined) [euspeclibcmpd862],inactive: -0.777
8,COCC1(C)NC(=O)N(CCC(=O)Nc2cc(C)on2)C1=O (centres undefined),inactive: 1.16
9,CC1CCC2(OC1)OC1CC3C4CCC5C[C@@H](O)CCC5(C)C4=CCC3(C)C1[C@@H]2C (some centres undefined) [euspeclibcmpd2138],inactive: -0.384
10,CC[C@@]1(O)C(=O)OCc2c1cc1n(c2=O)Cc2cc3c(CN(C)C)c(O)ccc3nc2-1 [euspeclibcmpd620],inactive: -0.0823
11,C=C1CC[C@H](O)C/C1=C/C=C1\CCC[C@]2(C)C([C@H](C)/C=C/[C@H](C)C(C)C)CC[C@@H]12 (some centres undefined) [euspeclibcmpd112],active: 2.55
12,Cc1c(C)c2c(c(C)c1O)CCC(C)(CCCC(C)CCCC(C)CCCC(C)C)O2 (centres undefined) [euspeclibcmpd449],inactive: -0.0554
13,CCCC(=O)Nc1ccc(OCC(O)CNC(C)C)c(C(C)=O)c1 (centres undefined) [euspeclibcmpd329],inactive: -0.442
14,N[C@@H](CC(=O)N1CCn2c(nnc2C(F)(F)F)C1)Cc1cc(F)c(F)cc1F [euspeclibcmpd2166],active: 12.2
15,COc1cc2c(cc1OC)Cc1cc(OC)c(OC)cc1Cc1cc(OC)c(OC)cc1C2 [euspeclibcmpd1674],inactive: -0.175
16,CC(=O)O[C@H]1CC[C@@]2(C)C(C[C@@H](OC(C)=O)[C@]3(C)C2CC[C@@]2(C)[C@H](c4ccoc4)OC(=O)C4O[C@]423)C1(C)C (some centres undefined) [euspeclibcmpd2319],active: 5.12
17,Cc1oc(=O)oc1CN1CCN(c2cc3c(cc2F)c(=O)c(C(=O)O)c2n3C(C)S2)CC1 (centres undefined) [euspeclibcmpd805],inactive: -0.455
18,C=COCC(F)(F)F [euspeclibcmpd927],inactive: -0.291
19,O=C(O)Cc1cc(I)c(Oc2ccc(O)c(I)c2)c(I)c1 [euspeclibcmpd1243],active: 8.98
20,CC(CCC(=O)O)[C@H]1CCC2C3CC[C@@H]4CCCC[C@]4(C)C3CC[C@@]21C (some centres undefined) [euspeclibcmpd1329],inactive: 1.64
21,COCCCOc1ccnc(C[S+]([O-])c2nc3ccccc3[nH]2)c1C (centres undefined) [euspeclibcmpd2062],inactive: -0.00915
22,COc1cc(C(C)=O)cc(OC)c1O [euspeclibcmpd1999],inactive: -0.452
23,O=C(CCCCC(=O)Nc1c(I)cc(I)c(C(=O)O)c1I)Nc1c(I)cc(I)c(C(=O)O)c1I [euspeclibcmpd344],inactive: -0.528
24,CNCC[C@@H](Oc1ccccc1C)c1ccccc1 [euspeclibcmpd762],inactive: -0.064
25,Cc1ccc(C(=O)C(C)CN2CCCCC2)cc1 (centres undefined) [euspeclibcmpd1067],inactive: 1.18

row,Compound,Srxn1-GFP intensity median modified Z-score
1,S=c1[nH]cnc2[nH]cnc12 [euspeclibcmpd183],active: 59.5
2,N=C(N)SCCN [euspeclibcmpd1761],active: 3.8
3,N=C(N)N1CCc2ccccc2C1 [euspeclibcmpd956],inactive: -0.37
4,COc1ccc(-c2cc(=O)c3c(O)c(OC)c(OC)c(OC)c3o2)cc1OC [euspeclibcmpd1564],inactive: -0.0509
5,CCCc1nc2c(C)cc(-c3nc4ccccc4n3C)cc2n1Cc1ccc(-c2ccccc2C(=O)O)cc1 [euspeclibcmpd729],active: 3.15
6,CC(C[N+](C)(C)C)OC(N)=O (centres undefined) [euspeclibcmpd37],inactive: -0.0117
7,CN(C)CCN(Cc1ccc(Cl)cc1)c1ccccn1 [euspeclibcmpd1219],inactive: -0.833
8,Cc1onc(-c2c(Cl)cccc2Cl)c1C(=O)NC1C(=O)N2C1SC(C)(C)C2C(=O)O (centres undefined) [euspeclibcmpd2174],inactive: -0.262
9,Cc1c(NC(C)C)c(=O)n(-c2ccccc2)n1C [euspeclibcmpd1149],inactive: 0.683
10,C=CCOC(=O)C1=C(C)NC(C)=C(C(=O)OCC=C)C1/C=C/c1ccccc1,active: 4.92
11,COc1c(O)c(C)c(C=CC(C)=CCC=C(C)CCC=C(C)CCC=C(C)CCC=C(C)CCC=C(C)CCC=C(C)CCC=C(C)CCC=C(C)CCC=C(C)C)c(O)c1OC [euspeclibcmpd1853],inactive: -0.0742
12,NCCS [euspeclibcmpd667],inactive: 0.465
13,c1ccc(C(c2ccccc2)(c2ccccc2)n2ccnc2)cc1,inactive: 1.95
14,O=C(CCCN1CCC(O)(c2ccc(Cl)cc2)CC1)c1ccc(F)cc1 [euspeclibcmpd145],inactive: -0.792
15,COc1cc(C=CC(=O)CC(=O)C=Cc2ccc(O)c(OC)c2)ccc1O [euspeclibcmpd1307],active: 23.5
16,COC(=O)c1c(C)c2c(c(C)c1O)OC(=O)c1c(C)c(Cl)c(O)c(Cl)c1O2 [euspeclibcmpd1600],active: 12.9
17,Cc1ccc(C)c(OCCCC(C)(C)C(=O)O)c1 [euspeclibcmpd138],inactive: -0.449
18,COc1c2ccoc2cc2oc(C)cc(=O)c12 [euspeclibcmpd1519],inactive: 0.0755
19,COc1ccc(CN(CCN(C)C)c2ncccn2)cc1 [euspeclibcmpd534],inactive: -0.866
20,NCC(=O)CCC(=O)O [euspeclibcmpd661],inactive: 0.393
21,CCCCCCCCNC(C)C(O)c1ccc(SC(C)C)cc1 (centres undefined) [euspeclibcmpd406],inactive: -0.258
22,CC1=CC2C(CC1=O)C(C)=CCC2C(C)C (centres undefined) [euspeclibcmpd1509],inactive: -0.361
23,NCCCCN [euspeclibcmpd1490],inactive: 1.1
24,COC(=O)C1=C2C(=O)CC(C)C2C(O[C@@H]2O[C@H](CO)[C@@H](O)[C@H](O)[C@H]2O)OC1 (some centres undefined) [euspeclibcmpd2225],inactive: -0.236
25,CC(=O)OCC(=O)[C@@]1(O)CCC2C3CC=C4CC(=O)CC[C@]4(C)C3[C@@H](O)C[C@@]21C (some centres undefined) [euspeclibcmpd151],inactive: -0.58

row,Compound,Srxn1-GFP intensity median modified Z-score
1,O=c1[nH]c2cc(Cl)c(Cl)cc2[nH]c1=O [euspeclibcmpd2029],inactive: 0.486
2,COc1ccc2c3c1O[C@H]1C[C@@H](O)C=C[C@@]31CCN(C)C2 [euspeclibcmpd2292],inactive: 0.484
3,CON=C1CN(c2nc3c(cc2F)c(=O)c(C(=O)O)cn3C2CC2)CC1CN (centres undefined) [euspeclibcmpd871],inactive: -0.00523
4,C=C[C@](C)(O)CC[C@@H]1[C@@]2(C)CCCC(C)(C)[C@@H]2CC[C@]1(C)O [euspeclibcmpd2213],active: 2.3
5,CC[N+](CC)(CC(=O)Nc1c(C)cccc1C)Cc1ccccc1 [euspeclibcmpd901],inactive: 0.215
6,C=C(C)[C@H]1COc2cc3oc(=O)ccc3cc2O1 [euspeclibcmpd1602],inactive: -0.277
7,COc1ccccc1-c1cc(=O)c2c(OC)cccc2o1 [euspeclibcmpd2107],active: 2.2
8,CN1CCN(CC(=O)N2c3ccccc3C(=O)Nc3cccnc32)CC1 [euspeclibcmpd395],inactive: -0.0943
9,CC(=O)N(CC(O)CO)c1c(I)c(C(=O)NCCO)c(I)c(C(=O)NCC(O)CO)c1I (centres undefined) [euspeclibcmpd589],inactive: -0.168
10,CC1(C)O[C@H]2CC(=O)OC[C@]23[C@H]2CC[C@@]4(C)[C@H](c5ccoc5)OC(=O)C5O[C@]54[C@]2(C)C(=O)C[C@@H]13 (some centres undefined) [euspeclibcmpd1497],inactive: 0.563
11,COc1ccc2[nH]c3cc(Cl)ccc3c(=Nc3cc(CN4CCCC4)c(O)c(CN4CCCC4)c3)c2n1 [euspeclibcmpd1080],active: 9.12
12,CC1=NS(=O)(=O)c2cc(Cl)ccc2N1 [euspeclibcmpd950],inactive: -0.78
13,NC(Cn1ccc(=O)c(O)c1)C(=O)O (centres undefined) [euspeclibcmpd1811],inactive: -0.0137
14,Cn1cc[nH]c1=S [euspeclibcmpd188],inactive: -0.287
15,O=C(O)CCCCCCCCCCCCC1C=CCC1 (centres undefined) [euspeclibcmpd1516],active: 10.6
16,CCC1(c2ccccc2)C(=O)NCNC1=O [euspeclibcmpd245],inactive: 0.413
17,Oc1c(Cl)cc(Cl)c2cccnc12 [euspeclibcmpd537],active: 2.82
18,CN(C)CCC(c1ccc(Br)cc1)c1ccccn1 (centres undefined) [euspeclibcmpd2105],inactive: -0.111
19,C[C@@](Cc1ccc(O)c(O)c1)(NN)C(=O)O [euspeclibcmpd440],inactive: 0.573
20,CCCCC(CC)COC(=O)CC(C(=O)OCC(CC)CCCC)S(=O)(=O)O (centres undefined) [euspeclibcmpd1827],inactive: -0.295
21,Clc1ccc2c(c1)CCc1cccnc1C2=C1CCNCC1 [euspeclibcmpd2172],inactive: 0.635
22,Clc1ccc2c(c1)CCc1cccnc1C2=C1CCNCC1 [euspeclibcmpd2207],inactive: 1.43
23,O=C1NCC2(CCN(CCc3ccccc3)CC2)O1 [euspeclibcmpd372],inactive: -0.351
24,CO[C@H]1CC(O[C@@H]2/C(C)=C/C[C@@H]3C[C@@H](C[C@]4(CC[C@H](C)[C@@H](C5CCCCC5)O4)O3)OC(=O)C3=CC(C)C(=NO)C4OC/C(=C\C=C\[C@@H]2C)[C@@]34O)O[C@@H](C)C1O (some centres undefined) [euspeclibcmpd601],active: 8.72
